The target in test [1] is T1, GFP-caspase-2-C320G (stably expressed in U2OS-CASP2-/- cells, sC320G) (mouse) (UniProt P29594).
T1 sequence: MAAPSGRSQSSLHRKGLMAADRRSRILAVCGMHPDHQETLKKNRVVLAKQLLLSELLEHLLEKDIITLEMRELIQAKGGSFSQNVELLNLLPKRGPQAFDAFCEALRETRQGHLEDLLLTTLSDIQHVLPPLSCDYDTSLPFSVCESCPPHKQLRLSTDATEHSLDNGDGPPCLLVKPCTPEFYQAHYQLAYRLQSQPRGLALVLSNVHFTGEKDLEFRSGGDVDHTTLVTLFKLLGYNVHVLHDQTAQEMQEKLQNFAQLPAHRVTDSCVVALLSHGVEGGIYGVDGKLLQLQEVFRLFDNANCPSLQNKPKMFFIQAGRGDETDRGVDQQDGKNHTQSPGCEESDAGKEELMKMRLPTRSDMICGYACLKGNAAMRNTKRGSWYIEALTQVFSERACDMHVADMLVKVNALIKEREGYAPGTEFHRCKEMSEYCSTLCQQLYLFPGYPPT
In words: co-IP; GFP-Trap IP of GFP-caspase-2-C320G from asynchronous sC320G cells; NP-40 lysis buffer; 2 h at 4 °C; immunoblot for AURKB.

Chains of the proteins cited; added tags and fusions are not shown.
UniProt Q96GD4: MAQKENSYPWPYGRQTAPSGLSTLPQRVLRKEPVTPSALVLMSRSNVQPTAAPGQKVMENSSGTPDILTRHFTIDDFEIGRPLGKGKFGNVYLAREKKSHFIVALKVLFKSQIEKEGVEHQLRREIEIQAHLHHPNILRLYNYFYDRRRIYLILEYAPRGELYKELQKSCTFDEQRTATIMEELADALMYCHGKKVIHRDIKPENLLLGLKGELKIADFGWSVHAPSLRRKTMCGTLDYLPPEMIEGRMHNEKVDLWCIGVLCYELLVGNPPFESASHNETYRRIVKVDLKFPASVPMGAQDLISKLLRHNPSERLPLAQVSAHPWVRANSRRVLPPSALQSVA

For test [2], the target named is T1, GFP-caspase-2-C320G (stably expressed in U2OS-CASP2-/- cells, sC320G) (mouse). Briefly: condition: only cells treated with the AURKB inhibitor ZM447439 (2 µM, 24 h); co-IP; GFP-Trap IP of GFP-caspase-2-C320G from sC320G cells treated with the AURKB inhibitor ZM447439 (2 µM, 24 h); NP-40 lysis buffer; 2 h at 4 °C; immunoblot for AURKB.
Test [3] shares this target. In words: co-IP; GFP-Trap IP of GFP-caspase-2-C320G from mitotic sC320G cells (thymidine block, release, 100 ng/mL nocodazole 14 h, shake-off); NP-40 lysis buffer; 2 h at 4 °C; immunoblot for AURKB.
Test [4] has as its target T2, GST-Casp2-C320G (GST-Casp2 full-length) (mouse) (UniProt P29594).
T2 sequence: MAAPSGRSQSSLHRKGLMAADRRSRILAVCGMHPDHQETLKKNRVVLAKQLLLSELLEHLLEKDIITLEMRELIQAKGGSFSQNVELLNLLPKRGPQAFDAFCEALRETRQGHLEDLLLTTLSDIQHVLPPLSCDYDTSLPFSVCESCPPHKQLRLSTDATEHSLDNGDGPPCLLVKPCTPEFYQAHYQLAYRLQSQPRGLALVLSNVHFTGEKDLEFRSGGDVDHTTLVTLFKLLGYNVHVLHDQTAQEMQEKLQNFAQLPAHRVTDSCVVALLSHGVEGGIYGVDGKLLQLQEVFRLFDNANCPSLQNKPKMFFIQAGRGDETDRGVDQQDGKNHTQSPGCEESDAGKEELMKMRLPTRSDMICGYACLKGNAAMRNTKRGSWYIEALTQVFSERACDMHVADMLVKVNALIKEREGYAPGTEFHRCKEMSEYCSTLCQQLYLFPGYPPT
Briefly: pull-down; GST pull-down: 1 µg GST fusion incubated with 500 ng His-AURKB in 50 mM Tris-HCl, 10 mM MgCl2, 0.1 mM EDTA, 0.01% Brij 35, pH 7.5, 2 h at room temperature; captured on glutathione-agarose beads; four washes; immunoblot; both purified.

For test [5], the target named is T3, GST-Casp2_(363–423)-WT (mouse) (UniProt P29594).
T3 sequence: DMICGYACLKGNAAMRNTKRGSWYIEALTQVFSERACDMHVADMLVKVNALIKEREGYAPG
Described as above.

In test [6] the target is caspase-2-S384E BiFC constructs (pBiFC-HA-Casp2(S384E)-VC155 and pBiFC-HA-Casp2(S384E)-VN173) (mouse) (UniProt P29594). Briefly: split reporter; BiFC (VN173 + VC155 Venus fragments) in U2OS-CASP2-/- cells with 20 µM z-VAD; DMSO or 100 nM BI2536 for 24 h; fixed cells, confocal microscopy, BiFC-positive cells counted.

Results are given in words; binding and its absence hold for the method and conditions named. For part of these data: In cells and extracts the contact can be indirect. Some entries that bind do so weakly or less than the wild type. Where a sequence is shown, tags or fusion partners need not be part of it.

In the case of “AURKB (endogenous, U2OS cells) (from UniProt Q96GD4 1-344) (enzyme)”, the binding entry in test [1] was “no binding (condition: asynchronous cells)”; in test [2], “no binding”; in test [3] it was “binds”.
In the case of “His-AURKB (recombinant human Aurora B kinase) (from UniProt Q96GD4 1-344) (enzyme)”, the binding entry in test [4] and in test [5] was “binds” each time.

B1: caspase-2-S384E BiFC constructs (pBiFC-HA-Casp2(S384E)-VC155 and pBiFC-HA-Casp2(S384E)-VN173) (enzyme, UniProt P29594 1-452)
chain: MAAPSGRSQSSLHRKGLMAADRRSRILAVCGMHPDHQETLKKNRVVLAKQLLLSELLEHLLEKDIITLEMRELIQAKGGSFSQNVELLNLLPKRGPQAFDAFCEALRETRQGHLEDLLLTTLSDIQHVLPPLSCDYDTSLPFSVCESCPPHKQLRLSTDATEHSLDNGDGPPCLLVKPCTPEFYQAHYQLAYRLQSQPRGLALVLSNVHFTGEKDLEFRSGGDVDHTTLVTLFKLLGYNVHVLHDQTAQEMQEKLQNFAQLPAHRVTDSCVVALLSHGVEGGIYGVDGKLLQLQEVFRLFDNANCPSLQNKPKMFFIQACRGDETDRGVDQQDGKNHTQSPGCEESDAGKEELMKMRLPTRSDMICGYACLKGNAAMRNTKRGEWYIEALTQVFSERACDMHVADMLVKVNALIKEREGYAPGTEFHRCKEMSEYCSTLCQQLYLFPGYPPT
Consider B1, for which the binding result in test [6] was “binds”.

Source of the values: paper PMC7852673.
